Laboratory results taken from PubChem BioAssay AID720708 (National Center for Advancing Translational Sciences (NCATS), 2013).
The campaign covered roughly 360,000 compounds. About 660 (0.18%) were called active. This list was built around the results that the source calls inconclusive (neither active nor inactive); the mix of calls is not that of the screen. Calls follow the shape of the dose curve; as a rule, active = well fitted inhibition curve with a large enough effect; inconclusive = small, poorly fitted or top-dose-only effect; inactive = no such curve, though single readings can be large or run the other way. Potencies of inconclusive entries are doubtful fits and often do not repeat.

These compounds were tested against Rap guanine nucleotide exchange factor 4 (Homo sapiens) (UniProt Q8WZA2) (assay: qHTS for Antagonist of cAMP-regulated guanine nucleotide exchange factor 2 (EPAC2): primary screen). Conditions: EPAC2 GEF exchange of Rap1B-BODIPY-GDP, fluorescence; activity, negative = inhibition: at 114 µM (top of the series) unless noted.
% is scaled to controls: 0 for no effect and ±100 for the full control effect; potency is read from the fitted curve at half-maximal effect; tags tell the direction and shape of the fitted curve.
Also: nearly all actives have a fitted effect of over 45% in size.

Sequence of UniProt Q8WZA2 (Q8WZA2 whole entry, looked up): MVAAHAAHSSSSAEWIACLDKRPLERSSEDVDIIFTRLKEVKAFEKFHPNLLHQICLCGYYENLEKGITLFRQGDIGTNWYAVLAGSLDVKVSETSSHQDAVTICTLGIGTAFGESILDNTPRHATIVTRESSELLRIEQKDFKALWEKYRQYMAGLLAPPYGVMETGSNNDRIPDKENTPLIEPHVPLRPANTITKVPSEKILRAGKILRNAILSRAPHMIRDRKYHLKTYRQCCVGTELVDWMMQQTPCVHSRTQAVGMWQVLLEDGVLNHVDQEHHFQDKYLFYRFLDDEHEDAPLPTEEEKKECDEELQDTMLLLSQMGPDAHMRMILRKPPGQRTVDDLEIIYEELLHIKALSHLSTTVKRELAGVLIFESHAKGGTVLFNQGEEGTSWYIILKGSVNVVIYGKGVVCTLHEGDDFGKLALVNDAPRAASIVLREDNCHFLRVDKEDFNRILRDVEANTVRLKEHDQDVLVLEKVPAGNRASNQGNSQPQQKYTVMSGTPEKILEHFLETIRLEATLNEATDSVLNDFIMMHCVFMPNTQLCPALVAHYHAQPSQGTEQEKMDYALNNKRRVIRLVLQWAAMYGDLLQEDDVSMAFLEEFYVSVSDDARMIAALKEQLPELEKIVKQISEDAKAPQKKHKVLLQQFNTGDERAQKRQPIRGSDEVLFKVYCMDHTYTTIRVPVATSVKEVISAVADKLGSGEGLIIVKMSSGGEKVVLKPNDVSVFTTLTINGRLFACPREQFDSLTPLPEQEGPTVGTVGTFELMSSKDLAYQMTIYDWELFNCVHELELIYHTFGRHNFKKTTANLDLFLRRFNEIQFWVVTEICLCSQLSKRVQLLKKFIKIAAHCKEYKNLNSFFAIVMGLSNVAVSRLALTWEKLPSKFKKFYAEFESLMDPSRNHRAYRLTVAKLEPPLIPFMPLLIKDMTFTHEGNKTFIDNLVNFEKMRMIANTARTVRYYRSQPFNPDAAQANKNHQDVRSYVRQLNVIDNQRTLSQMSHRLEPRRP

Row | Compound | Potency | activity, negative = inhibition
1 | Cc1ccc(NC(=O)CN2CCCC2c2cccn2C)cc1C (stereo not given) | inconclusive: 56.2 µM [inhibitor, partial curve] | –
2 | O=S(=O)(O)c1ccc(O)c2cc(Nc3ccccc3)ccc12 | inconclusive: 79.4 µM [inhibitor, single point] | –
3 | Cc1cc(C)nc(SCC(=O)c2ccc(F)c(C)c2)n1 | inconclusive: 28.2 µM [inhibitor, partial curve] | –
4 | COc1ccc(CN2C(=O)c3cccnc3C2Nc2cc(Cl)ccc2OC)cc1 (stereo not given) | inactive | –
5 | O=C(Nc1ccc(S(=O)(=O)N2CCCC2)cc1)C1CCN(S(=O)(=O)c2ccc(F)cc2)CC1 | inactive | –
6 | Clc1ccc(CCNc2ncnc3nc[nH]c23)cc1 | inactive | –
7 | Cc1cccn2c(=O)c(/C=C(\C#N)C(=O)NCc3ccco3)c(N3CCCC(C)C3)nc12 (stereo not given) | inconclusive: 89.1 µM [inhibitor, single point] | –
8 | Cc1ccc(S(=O)(=O)NC[C@H]2O[C@@H](n3ccc(N)nc3=O)[C@H](O)[C@@H]2O)s1 | inactive | –
9 | O=C1c2ccccc2C(=O)c2[nH]c(=O)[nH]c21 | inactive | –
10 | CC(Oc1ccc(Br)cc1Br)C(=O)Nc1cccnc1Cl (stereo not given) | inconclusive: 17.8 µM [inhibitor, partial curve] | –
11 | O=C1N(Cc2ccccc2)c2ccc(Cl)cc2C12OCCO2 | inconclusive: 31.6 µM [inhibitor, partial curve] | –
12 | O=C1OC(c2ccc(O)cc2)(c2ccc(O)cc2)c2ccccc21 | inconclusive: 44.7 µM [inhibitor, partial curve] | –
13 | N/C(=N\S(=O)(=O)c1cc(C(F)(F)F)cc(C(F)(F)F)c1)c1ccccc1 | inconclusive: 44.7 µM [inhibitor, partial curve] | –
14 | CCOC(=O)C1(C(N)=O)OC1(c1ccc(Cl)cc1)c1ccccc1Cl (stereo not given) | inconclusive: 56.2 µM [inhibitor, partial curve] | –
15 | COC(=O)Cn1c(=NC(=O)c2cc(OC)c(OC)c(OC)c2)sc2cc(OC)ccc21 | inactive | –
16 | CC(=O)Nc1ccc(S(=O)(=O)N2CCN(c3cc(C)ccc3C)CC2)cc1 | inconclusive: 25.1 µM [inhibitor, partial curve] | –
17 | [O-][n+]1cccc2c(Br)cc(Br)c(O)c21 | inactive | –
18 | CC(=O)c1nn(-c2ccccc2)cc1C(=O)c1cccc(Br)c1 | – | inconclusive: -11.6% [inhibitor] [at 57.1 µM]
19 | COc1ccc(OC)c(/C=C2\SC(=S)N(NS(=O)(=O)c3ccccc3)C2=O)c1 | inconclusive: 50.1 µM [inhibitor, partial curve] | –
20 | COc1ccccc1CNC(=O)c1ccc(-c2ccccc2C(F)(F)F)o1 | inconclusive: 22.4 µM [inhibitor, full curve] | –
21 | O=C(Nc1cccc(Cl)c1)Nc1nnc([C@@H]2C[C@H](O)[C@@H](CO)O2)s1 | inactive | –
22 | Cc1cc(=O)[nH]c(N2CCCC2)n1 | inconclusive: 20 µM [inhibitor, single point] | –
23 | CCOC(=O)c1c(C)[nH]c(C)c1S(=O)(=O)NCCN1CCN(c2cc(Cl)ccc2C)CC1 | inconclusive: 35.5 µM [inhibitor, partial curve] | –

Row | Compound | Potency | activity, negative = inhibition
24 | CCc1nc2ccc(C(=O)NCCCn3ccnc3)cn2c1N(C)Cc1cc2ccccc2s1 | inconclusive: 35.5 µM [inhibitor, partial curve] | –
25 | Cc1ccc(OCCC(=O)OCC(=O)Nc2cc(C)nn2-c2ccccc2)cc1 | inactive | –
26 | COC(=O)c1c(C)c[nH]c1C | inactive | –
27 | COc1ccc(CCN(C)CC(O)COC(c2ccc(F)cc2)c2ccc(F)cc2)cc1OC (stereo not given) | inactive | –
28 | CCOC(=O)COc1ccc(S(=O)(=O)N2CCN(c3ccccc3)CC2)cc1 | inconclusive: 28.2 µM [inhibitor, full curve, poor fit] | –
29 | CCC(CO)Nc1ccn2nc(-c3ccccc3)cc2n1 (stereo not given) | inactive | –
30 | Cc1ccc(S(=O)(=O)N2CCN(C(=O)CSc3cc(C)ccc3C)CC2)c(C)c1 | inconclusive: 56.2 µM [inhibitor, partial curve] | –
31 | COc1cccc(NC(=O)Cn2c(CCC(=O)O)ccc2-c2cccs2)c1 | inconclusive: 100 µM [inhibitor, single point] | –
32 | Cc1ccc([N+](=O)[O-])cc1S(=O)(=O)Nc1cccc(S(=O)(=O)NC2=NCCC2)c1 | inactive | –
33 | N#CC(c1ccccc1)N(CCCCl)C(=O)c1ccc(Br)cc1 (stereo not given) | inconclusive: 8.91 µM [inhibitor, full curve] | –
34 | O=C(NC1CCCC1)C(C1CC1)n1c(-c2ccccn2)nc2ccccc21 (stereo not given) | inconclusive: 39.8 µM [inhibitor, partial curve, poor fit] | –
35 | CC(C)C[C@H]1CNC(=S)N1C[C@H]1CCCN1C[C@H](Cc1ccccc1)N1C[C@H](CC(C)C)N(CCc2ccccc2)C1=S | inactive | –
36 | COc1cc2cncc(Cc3ccc(Cl)cc3)c2cc1OC | inconclusive: 12.6 µM [inhibitor, full curve] | –
37 | Cc1ccc(NC(=O)CN2C(=O)NC(C)(CC(C)C)C2=O)c(Br)c1 (stereo not given) | inactive | –
38 | O=C(Nc1ccccc1)OC1CCCCc2cccnc21 (stereo not given) | inconclusive: 79.4 µM [inhibitor, partial curve] | –
39 | CCc1nc2c(OCc3ccc(OC)cc3)cccn2c1N(C)C(=O)c1ccc(OC)cc1 | inconclusive: 100 µM [inhibitor, partial curve] | –
40 | CCC(C(=O)Nc1ccsc1C(=O)OC)c1ccccc1 (stereo not given) | inconclusive: 50.1 µM [inhibitor, partial curve] | –
41 | CCOC(=O)C1=C(C)N=C2SC(C(=O)OC)=CC(=O)N2C1c1cccc(OC)c1 (stereo not given) | inactive | –
42 | CN(C)c1ccc(/C=C/c2ccc3ccccc3[n+]2C)cc1 | inconclusive: 50.1 µM [inhibitor, partial curve] | –
43 | COC(=O)[C@@]12C[C@@H](CC(=O)NCc3ccc(OC)c(OC)c3)C(=O)N(Cc3ccco3)C1=CCC(C)(C)C2 | inconclusive: 79.4 µM [inhibitor, partial curve] | –
44 | CC(C)[C@H](NS(=O)(=O)c1ccccc1)C(=O)OCC(=O)N1N=C(c2ccc(Cl)cc2)CC1c1ccco1 (stereo not given in full) | inactive | –
45 | O=C(Nc1ccc(NC(=O)c2ccco2)nc1)c1cccc(F)c1 | inconclusive: 28.2 µM [inhibitor, single point] | –
